Measured values: publication PMC11527351
Results are given in words; binding and its absence hold for the method and conditions named. Binding seen in cells or lysates may run through a third protein. Some entries that bind do so weakly or less than the wild type.

Sequences of proteins named here, by UniProt entry; tags and fusion partners are left off.
UniProt Q9CQS8: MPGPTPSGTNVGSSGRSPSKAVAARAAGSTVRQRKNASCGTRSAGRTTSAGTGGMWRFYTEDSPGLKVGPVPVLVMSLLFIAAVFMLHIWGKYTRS

What was measured:
[1] = biological target: T1, Guanine nucleotide exchange factor (GEF)-H1 (mouse (endogenous in BMDMs)) (UniProt Q60875); assay: co-IP; immunoprecipitation of endogenous GEF-H1 (GEF-H1 antibody, protein G agarose) from lysates of mouse BMDMs stimulated with 25 μM GMTriP-K (time course, 1 to 18 hours); Pierce IP lysis buffer, 4 °C overnight; immunoblot
T1 sequence: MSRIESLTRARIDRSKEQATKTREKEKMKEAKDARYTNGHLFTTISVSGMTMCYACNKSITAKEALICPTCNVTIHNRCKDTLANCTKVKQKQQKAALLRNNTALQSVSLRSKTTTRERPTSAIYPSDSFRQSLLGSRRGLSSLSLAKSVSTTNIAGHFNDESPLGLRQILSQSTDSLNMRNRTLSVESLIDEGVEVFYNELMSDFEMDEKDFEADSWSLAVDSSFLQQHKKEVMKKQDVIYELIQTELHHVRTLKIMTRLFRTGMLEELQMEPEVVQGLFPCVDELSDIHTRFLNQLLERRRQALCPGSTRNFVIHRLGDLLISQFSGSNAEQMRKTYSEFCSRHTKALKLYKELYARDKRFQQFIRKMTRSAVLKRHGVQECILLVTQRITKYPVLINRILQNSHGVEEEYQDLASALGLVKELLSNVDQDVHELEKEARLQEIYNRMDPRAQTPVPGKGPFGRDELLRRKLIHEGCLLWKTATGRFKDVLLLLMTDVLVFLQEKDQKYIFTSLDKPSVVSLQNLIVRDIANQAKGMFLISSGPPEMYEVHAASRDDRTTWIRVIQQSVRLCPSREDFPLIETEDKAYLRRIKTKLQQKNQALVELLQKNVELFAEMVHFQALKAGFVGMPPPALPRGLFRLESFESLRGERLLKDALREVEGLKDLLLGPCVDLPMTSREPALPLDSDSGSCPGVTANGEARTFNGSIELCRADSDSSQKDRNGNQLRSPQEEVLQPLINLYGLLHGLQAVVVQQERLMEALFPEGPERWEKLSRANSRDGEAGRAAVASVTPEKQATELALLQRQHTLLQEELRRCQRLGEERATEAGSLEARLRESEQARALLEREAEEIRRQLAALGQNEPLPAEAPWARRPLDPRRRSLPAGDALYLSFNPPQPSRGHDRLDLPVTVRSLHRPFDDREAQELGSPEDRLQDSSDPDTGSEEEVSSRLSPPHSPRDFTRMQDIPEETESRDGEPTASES

[2] = biological target: T1, Guanine nucleotide exchange factor (GEF)-H1 (mouse (endogenous in BMDMs)); assay: condition: only macrophages without GMTriP-K (unstimulated, 25μg /mL cdi-GMP or 100ng/mL LPS); co-IP; immunoprecipitation with the N-terminus GEF-H1 antibody from lysates of mouse macrophages (BMDMs) without GMTriP-K: unstimulated, 25 μg/mL cdi-GMP or 100 ng/mL LPS; immunoblot
[3] = biological target: T2, NOD2 (mouse (endogenous in BMDMs)) (UniProt Q8K3Z0); assay: co-IP; immunoprecipitation with an antibody against NOD2 from lysates of mouse BMDMs after GMTriP-K stimulation; Pierce IP lysis buffer, protein G agarose; immunoblot
T2 sequence: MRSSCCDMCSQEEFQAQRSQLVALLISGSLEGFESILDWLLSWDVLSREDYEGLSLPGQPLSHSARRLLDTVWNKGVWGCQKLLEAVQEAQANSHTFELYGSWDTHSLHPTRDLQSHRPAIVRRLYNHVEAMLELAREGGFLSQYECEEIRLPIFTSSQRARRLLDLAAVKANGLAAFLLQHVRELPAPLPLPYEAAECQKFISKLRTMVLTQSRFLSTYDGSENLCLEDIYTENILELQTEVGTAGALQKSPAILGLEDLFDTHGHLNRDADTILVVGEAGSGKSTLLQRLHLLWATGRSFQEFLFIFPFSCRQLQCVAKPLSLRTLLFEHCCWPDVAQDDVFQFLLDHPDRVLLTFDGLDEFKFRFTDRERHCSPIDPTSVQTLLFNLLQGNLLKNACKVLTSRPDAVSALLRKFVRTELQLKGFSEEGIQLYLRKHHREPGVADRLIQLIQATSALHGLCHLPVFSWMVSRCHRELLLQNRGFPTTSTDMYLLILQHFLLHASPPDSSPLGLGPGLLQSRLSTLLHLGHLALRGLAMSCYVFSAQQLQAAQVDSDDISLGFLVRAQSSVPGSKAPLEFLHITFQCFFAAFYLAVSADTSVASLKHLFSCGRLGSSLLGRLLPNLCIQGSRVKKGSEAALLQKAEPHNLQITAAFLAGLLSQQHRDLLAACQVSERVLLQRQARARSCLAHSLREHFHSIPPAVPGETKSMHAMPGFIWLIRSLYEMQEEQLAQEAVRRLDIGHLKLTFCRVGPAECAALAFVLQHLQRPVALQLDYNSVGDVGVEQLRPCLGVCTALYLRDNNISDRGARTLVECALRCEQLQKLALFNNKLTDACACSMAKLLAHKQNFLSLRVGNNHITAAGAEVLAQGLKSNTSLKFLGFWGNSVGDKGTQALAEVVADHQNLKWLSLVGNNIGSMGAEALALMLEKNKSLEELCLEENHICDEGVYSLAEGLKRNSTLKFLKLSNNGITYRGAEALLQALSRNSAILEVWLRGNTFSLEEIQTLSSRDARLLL

[4] = biological target: T3, Peptidoglycan recognition protein 1 (PGLYRP-1) (mouse (endogenous in BMDMs)) (UniProt O88593); assay: co-IP; immunoprecipitation with an antibody against PGLYRP-1 from lysates of mouse BMDMs after GMTriP-K stimulation; Pierce IP lysis buffer, protein G agarose; immunoblot
T3 sequence: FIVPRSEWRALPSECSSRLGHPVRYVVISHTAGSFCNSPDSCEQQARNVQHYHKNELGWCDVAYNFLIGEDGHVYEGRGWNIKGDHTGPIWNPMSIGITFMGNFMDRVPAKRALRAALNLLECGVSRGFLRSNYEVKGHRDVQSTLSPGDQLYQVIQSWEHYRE

[5] = biological target: T1, Guanine nucleotide exchange factor (GEF)-H1 (mouse (endogenous in BMDMs)); assay: co-IP; immunoprecipitation with the N-terminus GEF-H1 antibody from lysates of mouse macrophages (BMDMs) without GMTriP-K: unstimulated, 25 μg/mL cdi-GMP or 100 ng/mL LPS; immunoblot

With Sec61β (from UniProt Q9CQS8 1-96) the binding [1] was “binds” and the binding [2] was “no binding”.

B1: Peptidoglycan recognition protein 1 (PGLYRP-1) (protein, UniProt O88593 19-182)
chain: T3 sequence
With B1 the binding [1] was “binds”, the binding [2] was “no binding” and the binding [3] was “binds”.

B2: NOD2 (protein, UniProt Q8K3Z0 1-1020)
chain: T2 sequence
B2 was tested, and the binding [1] was “binds”, the binding [2] was “no binding” and the binding [4] was “binds”.

B3: cis-Golgi matrix protein 130 (GM130/GOLGA2) (protein, UniProt Q921M4 1-999)
chain: MWPPRFPPPRPGMSEETRQSKLAAAKKKLREYQQKNSPGVPAGAKKKKKIKNGHSPERPTASDCQSPENVPTDHIAPAPPTAATDTMFLGVTPSPDADLTQSHDAGNCSNLMEETKTFSSTESLRQLSQQLNGLVSESTSYINGEGLTSSNMKELENRYQELAVALDSSYVTNKQLSSTIEELKQQNQDTLDQLEKEKKDYQQKLAKEQGSLREQLQVHIQTIGILVSEKAELQTALAHTQQAARQKAGESEDLASRLQSSRQRVGELERTLSTVSTQQKQADRYNKDLTKERDALKLELYKNSKSNEDLRQQNSELEEKLRVLVAEKAAAQLGVEELQKKLEMSELLLQQFSSQSSAAGGNEQLQHAMEERAQLETHVSQLMESLKQLQVERDQYAENLKGESAMWQQRVQQMAEQVHTLKEEKEHRERQVQELETSLAALRSQMEEPPPPEPPAGPSEAEEQLQGEVEQLHKELERLTGQLRAQVQDNESLSHLNREQEGRLLELEREAQRWSEQAEERKQILESMQSDRTTISRALSQNRELKEQLAELQNGFVRLTNENMEITSALQSEQHVKKELARKLGELQERLGELKETVELKSQEAQGLQEQRDQCLSHLQQYAAAYQQHLAAYEQLTSEKEAIHKQLLLQTQLMDQLQHEEVQGKMAAELARQELQEAQERLKATSQENQQLQAQLSLLVLPGEGDVDQEEEDEEVPQSSLAIPEDLDSREAMVAFFNAAIARAEEEQARLRVQLKEQKARCRSLSHLAAPVQSKLEKEAVVPRNVDDSASEESNQALHVAMEKLQSRFLEVMQEKVELKERVEELEHCCIQLSGETDTIGEYIALYQNQRAVLKARHLEKEEYISRLAQDKEEMKVKLLELQELVLRLVNERNEWQGKFLAVSQNPGDVLTPVPTGSQEFGAADQQDDLREVSLADDIEPAQGEAGVPAPHENPTAQQIMQLLREIQNPRERPGLGSNPCIPFFYRADENDEVKIMVV
For B3, the binding [1] was “binds” and the binding [5] was “binds”.

B4: Guanine nucleotide exchange factor (GEF)-H1 (protein, UniProt Q60875 1-985)
chain: T1 sequence
In the case of B4, the binding [3] is reported as “binds” and the binding [4] is reported as “binds”.
